Whole data set: some 110,000 compounds, median “z-score” near -0.1, cut for the highest 2% near 2. The list shows a part of the results. Active and inactive are the calls of the source.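 Rule for the calls: active = z-score in the third read window above 3 or below -3; inactive = the rest.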

The target in this assay is Metabotropic glutamate receptor 8 (Rattus norvegicus) (UniProt P70579). The experiment in a line: rat mGluR8 modulators via GIRK flux, primary screen, cell-based, thallium flux, HTS (AID 488969). Conditions: HEK293 rat mGluR8, GIRK (G protein-gated inwardly rectifying potassium channel) thallium flux, FluoZin2; at 10 µM; stronger effect = higher value; submaximal glutamate (EC20) added with thallium.
Chain of UniProt P70579 (P70579 whole entry, looked up): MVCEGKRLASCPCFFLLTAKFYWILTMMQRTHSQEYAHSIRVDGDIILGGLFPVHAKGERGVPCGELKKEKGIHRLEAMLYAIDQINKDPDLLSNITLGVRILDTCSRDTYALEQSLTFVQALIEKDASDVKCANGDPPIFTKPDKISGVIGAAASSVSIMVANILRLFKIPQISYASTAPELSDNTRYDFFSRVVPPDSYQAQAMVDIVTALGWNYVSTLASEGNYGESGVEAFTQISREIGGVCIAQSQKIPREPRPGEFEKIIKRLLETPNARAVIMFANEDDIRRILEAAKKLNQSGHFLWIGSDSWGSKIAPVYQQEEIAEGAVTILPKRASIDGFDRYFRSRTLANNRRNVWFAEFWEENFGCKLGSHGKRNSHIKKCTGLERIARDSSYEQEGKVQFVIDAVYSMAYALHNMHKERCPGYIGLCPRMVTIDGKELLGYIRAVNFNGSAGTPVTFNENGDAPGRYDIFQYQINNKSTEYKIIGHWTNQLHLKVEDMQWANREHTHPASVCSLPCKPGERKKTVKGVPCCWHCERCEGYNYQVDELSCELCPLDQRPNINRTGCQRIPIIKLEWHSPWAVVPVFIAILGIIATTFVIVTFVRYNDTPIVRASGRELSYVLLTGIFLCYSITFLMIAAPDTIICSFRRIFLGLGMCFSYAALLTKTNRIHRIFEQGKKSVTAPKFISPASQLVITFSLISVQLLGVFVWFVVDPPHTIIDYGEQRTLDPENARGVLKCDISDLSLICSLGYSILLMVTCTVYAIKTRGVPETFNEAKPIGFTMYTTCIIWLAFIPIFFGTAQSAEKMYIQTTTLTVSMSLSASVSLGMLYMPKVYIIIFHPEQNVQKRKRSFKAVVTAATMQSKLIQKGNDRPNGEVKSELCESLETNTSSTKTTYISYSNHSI
`Cc1ccc2oc(=O)n(Cc3ccccc3OC(C)C)c2c1` yielded a z-score of -0.597.
The value for `COc1cc(/C=N/NC(=S)Nc2cccc(C(=O)O)c2)ccc1O` was -0.08; that for `O=C(NNS(=O)(=O)c1ccc(Cl)cc1)c1sccc1-n1cccc1` was 0.249.
The figure for `Oc1c(Cl)cc(Cl)cc1C(C#Cc1ccccc1)N1CCOCC1` (stereo unspecified) is -0.0165; for `COc1cccc(CN2C(=O)CN(C3CCCCC3)C(=O)C2c2ccc(F)cc2)c1` (stereo unspecified) it is -0.68; for `C/C(=N\NC(=O)c1nc(C)cc(C)n1)c1ccccc1` it is 0.424.
The value for `CC(C)CCNC(=O)C(c1ccco1)N(CC1CCCO1)C(=O)Cn1nnc2ccccc21` (stereo unspecified) was -0.844; that for `Cc1cc(C)c2c(N)c3ccccc3nc2n1` was -0.0162; that for `COc1ccc(/C=C/C(=O)c2sc(-c3ccccc3)nc2C)cc1` was 0.276.
`Cc1ccc2nc3c(cc(C(=O)NCC4CCCO4)c(=N)n3CCCOC(C)C)c(=O)n2c1` (stereo unspecified) registered a z-score of -0.201.
`COc1cc(C(=O)N2CCN(C(=O)c3ccco3)CC2)cc(OC)c1OC` came in with a z-score of -0.34.
The figure for `CC1(C)Cc2nc3[nH]c(=S)n(-c4ccccc4)c(=O)c3cc2CO1` is -0.126; for `O=C1CC(c2ccc(F)cc2)Sc2ccccc2N1` (stereo unspecified) it is -0.241; for `O=C(/C=C/C=C/c1ccccc1)CC1(O)C(=O)N(CCc2ccccc2)c2ccccc21` (stereo unspecified) it is -0.052.
The figure for `O=C(CSc1ccc(C(F)(F)F)cc1[N+](=O)[O-])Nc1ccc2ccccc2c1` is -0.315; for `Cn1c(CCC(=O)Nc2ccc(N3CCOCC3)cc2)nc(=O)c2ccccc21` it is 0.118; for `CCOc1ccc(OCCOCCN2CCOCC2)cc1` it is 0.413.
As for `O=c1c2cc(N3CCOCC3)ccc2[nH]c(=S)n1Cc1cccc(Cl)c1`, the z-score was 0.348.
In turn, `CCOc1ccc(NC(=O)[C@@H](NC(=O)c2ccccc2Br)C(C)C)cc1` registered a z-score of 1.11.
The figure for `COc1ccc(CN(C)C2CCCCC2)c(C)c1C` is 0.366.
The value for `COc1ccc(CC(=O)Nc2cc(=O)n(C)c(=O)n2C)cc1` was 2.78; that for `CCOC(=O)C1CCN(c2ncnc3c2cnn3-c2ccc(Cl)cc2)CC1` was -0.452.
For `CC(=O)c1ccc(NC(=O)CN2CCN(c3ncccn3)CC2)cc1`, the z-score was -0.451.
The compound `O=C(COc1cccc2c1CCN(Cc1ccc(Br)cc1)C2=O)NCc1ccco1` had a z-score of -0.582.
On to `CCc1cccc2c(C#N)cn(CCOc3ccccc3OC)c12`, for which the z-score is -0.0933.
Turning to `C(=N\Nc1ccc(-n2ccnc2)nn1)/c1ccccc1`, the z-score was -0.435.
The figure for `CCn1c(-c2ccccc2Cl)nn(CC(=O)NCCc2ccccc2)c1=S` is -0.24; for `Cc1ccc(Nc2oc(C)nc2C#N)cc1` it is 0.594; for `CCCCn1nnnc1SCC(=O)Nc1cccc(C)n1` it is -0.0907.
The figure for `Cc1ccc(-n2cc(-c3ccc([N+](=O)[O-])cc3)[nH]c2=S)c(C)c1` is 2.99.
In turn, `CC(=O)SC(C[N+](=O)[O-])c1cn(C(C)=O)c2ccccc12` (stereo unspecified) registered a z-score of -0.232.
The figure for `CCOC(=O)c1sc(N)c(C#N)c1CSc1nc2ccc(C)cc2[nH]1` is 0.187.
The value for `CC(C)(C)c1cc(C(F)(F)F)nc(SCCCNC(=O)c2ccco2)n1` was -0.564; that for `O=C(Nc1nc2ccc(SC(F)F)cc2s1)c1ccc(NS(=O)(=O)c2ccc(F)c(F)c2)cc1` was -1.29.
The compound `Cc1cc(C)cc(NC(=O)CSc2nnc(CNC(=O)c3cccs3)o2)c1` registered a z-score of -0.296.
In turn, `O=C(Cn1nnc2ccccc21)c1ccccc1` displayed a z-score of 0.105.
`CCOc1ccccc1NC(=O)c1cc(Cl)ccc1NC(=O)c1ccco1` had a z-score of -0.11.
The value for `CNC(=O)c1ccccc1NC(=O)c1c(O)c2c([nH]c1=O)CCCC2` was 0.0703; that for `CCCN1C(=O)c2ccc(C(=O)NC3CCCCC3)cc2C1=O` was -0.0494; that for `CSc1cc(-c2ccc(Cl)cc2)n(Cc2ccccc2)c(=O)c1C#N` was -0.0166.
The value for `O=C(c1ccco1)N1CCN(C(=O)C(Sc2ccccc2)c2ccccc2)CC1` (stereo unspecified) was -0.779; that for `COc1ccc(C(=O)Nc2cc(C(=O)c3ccccc3)c(C)oc2=O)cc1` was 0.0879; that for `Cc1nc2ccc(NS(=O)(=O)c3ccc(C)c(C)c3)cc2s1` was -0.187.
The compound `Cc1ccc(-c2nnc(N(C)C(=O)C3CCCO3)s2)cn1` (stereo unspecified) displayed a z-score of -0.404.
Consider `CCCCC(C(=O)NC1CCCC1)N(Cc1ccco1)C(=O)Cn1nnc(-c2ccc(F)cc2)n1` (stereo unspecified), for which the z-score was -0.0656.
The figure for `O=C(CNC(=O)c1ccco1)NCC(=O)OCc1ccc(Cl)cc1` is 0.054.
The value for `COc1ccc(C2CC(=O)c3cnc(N)nc3C2)c(OC)c1` (stereo unspecified) was -0.296.
Compound `COC(=O)c1cccc(NC(=O)COC(=O)CSc2nc(C)cc(C)n2)c1` returned a z-score of -0.0777.
In turn, `O=C(Cn1cc2c(n1)CCCC2)NCCCN1CCCC1` yielded a z-score of 0.0617.
The figure for `COc1ccc(S(=O)(=O)C(C#N)c2nc3ccccc3nc2N2CCCC(C)C2)cc1` (stereo unspecified) is -0.767; for `CCOc1cc(/C=C\[N+](=O)[O-])ccc1OCC(=O)Nc1ccccc1C` it is -0.78.
The compound `CC(C)OC(=O)CSc1nnc(-c2ccncc2)n1N` had a z-score of -0.188.
The figure for `Cc1cc(=O)oc2ccc(OC(C)C(=O)O)cc12` (stereo unspecified) is 0.0783; for `CCC(C)C(NC(C)=O)C(=O)NC(=O)NC(c1ccccc1)c1ccccc1` (stereo unspecified) it is -1.02; for `CCc1c(O)nc(SCC(N)=O)n(-c2ccccc2F)c1=O` it is 1.42.
The figure for `O=C(CCc1ccc(O)c(O)c1)NNC(=S)NCCc1ccccc1` is -0.211; for `CS(=O)(=O)c1ccc(C(=O)NC2CCCCC2)cc1` it is 0.0254; for `Cc1ccc(/C=C/c2ccc(=O)n(Cc3ccc(Cl)cc3Cl)n2)cc1` it is -0.304.
The compound `CCN1CCCC1CNC(=O)c1cn(C)c2ccc(S(=O)(=O)N3CCCCCC3)cc2c1=O` (stereo unspecified) displayed a z-score of 1.29.
The value for `O=C(NC1CCCCC1)C(c1cccs1)N(C(=O)c1ccccn1)c1ccccc1` (stereo unspecified) was -0.11.
For the compound `Cc1ccc(CN(C)CCc2ccccn2)cc1`, the z-score was determined as 0.541.
For the compound `CC(=O)Nc1cccc(N2C(=O)CC(N3CCC(C(=O)N4CCCCC4)CC3)C2=O)c1` (stereo unspecified), the z-score was -0.567.
The value for `CCOC(=O)C1=NN(N=O)C2(CC(=O)N(c3cc(C)cc(C)c3)C2=O)C1` (stereo unspecified) was -0.893.
`CO/N=C(/CS(=O)Cc1ccccc1Cl)c1ccc(Cl)cc1Cl` (stereo unspecified): the z-score is -0.933.
`CCN(c1cccc(C)c1)S(=O)(=O)c1cccc(C(=O)O)c1` returned a z-score of -1.32.
The value for `Cc1cccc(C(=O)N/N=C/c2ccc[nH]2)c1` was -0.21; that for `COc1cc([N+](=O)[O-])ccc1NC(=O)CSc1nc2ccccc2n1-c1ccccc1` was 0.182.
The value for `O=C(O)CCCN1C(=O)C2C3CCC(O3)C2C1=O` (stereo unspecified) was -0.35; that for `O=C1CCC(C(=O)OC(C(=O)c2c[nH]c3ccccc23)c2ccccc2)=NN1` (stereo unspecified) was -0.136; that for `Cc1ccc(-c2nc3ncccc3o2)cc1NC(=O)c1ccco1` was -0.0446.
In turn, `Cc1ccc(C)c(C(=O)NC2CC(C)(C)NC(C)(C)C2)c1` showed a z-score of -0.211.
Consider `CCN=C1SC(C(N)=O)CC(=O)N1CC` (stereo unspecified), for which the z-score is 0.556.
The value for `Cc1cc(NC(=O)COc2nnc(-c3ccccc3)c3ccccc23)no1` was -0.0657; that for `O=C(NC(=S)N1CCN(c2ccc(C(F)(F)F)cc2[N+](=O)[O-])CC1)c1cccs1` was active: 8.9.
The figure for `CCOC(=O)C(NC(=O)CC)(N1CCc2ccccc2C1)C(F)(F)F` (stereo unspecified) is -0.138.
`O=C(O)c1ccc(-c2nc(-c3ccccc3)c(-c3ccccc3)[nH]2)cc1` displayed a z-score of -1.56.
In turn, `CCn1c2ccccc2c2nnc(SCCCn3c(=O)[nH]c4ccccc43)nc21` had a z-score of -0.382.
The figure for `Cc1cccn2c(=O)c3cc(C(=O)NCc4ccco4)c(=N)n(CCOCCO)c3nc12` is 1.43; for `COc1ccc(NC(=O)c2sc3cc(C(F)(F)F)cnc3c2-c2cccs2)cc1` it is 0.0731; for `CN(C)S(=O)(=O)c1ccc(Cl)c(C(=O)Nc2ccccc2[N+](=O)[O-])c1` it is -0.21.
Take `CC(C)CC(OC(=O)c1ccco1)C(=O)NC1CCCCC1` (stereo unspecified): the z-score is -0.873.
As to `Cc1cccc(NC(=O)Cc2ccc(F)cc2)c1`, the z-score was 1.28.
The value for `Cc1ccc(-c2cc(C(=O)N/N=C/C=C/c3ccco3)c3ccccc3n2)cc1C` was 2.64; that for `COc1ccc(C2C(C(C)=O)=C(C)Nc3ncnn32)cc1OC` (stereo unspecified) was 0.388.
With `CN(C(=O)CSc1nc(-c2ccc(F)cc2)cs1)C1CCS(=O)(=O)C1` (stereo unspecified), the z-score was -0.115.
The value for `Cc1ccc(C(=O)c2oc3ccccc3c2NC(=O)c2cc(-c3ccccc3O)n[nH]2)cc1` was 0.291.
The figure for `O=C1OC(c2ccccc2)=C/C1=C/N1CCOCC1` is -0.0331; for `CCOC(=O)C1CCCN(C2CC(=O)N(c3ccc(C)cc3)C2=O)C1` (stereo unspecified) it is 0.314; for `Cc1ccc(/C=N\Nc2nc3ccc(Cl)cc3[nH]2)o1` it is -0.417.
The figure for `Cc1ccccc1/C=N\NC(=O)c1csnn1` is -0.102; for `O=C(NCCCN1CCCCCC1)c1ccc2c(c1)NC(=O)C(N1CCOCC1)S2` (stereo unspecified) it is 0.756; for `C=C(C)COc1ccc2c(CC)cc(=O)oc2c1C` it is -0.246.
`O=C(NCC(c1ccc(F)cc1)N1CCOCC1)c1ccc(Br)o1` (stereo unspecified): the z-score is 0.0617.
Compound `Cc1c(C(=O)C(=O)N2CCCc3ccccc32)c2ccccc2n1C` registered a z-score of -0.375.
In turn, `COc1ccc(NCc2nnc(SCC(=O)Nc3nc(-c4ccccc4)cs3)n2-c2ccccc2)cc1` yielded a z-score of -0.141.
`CCN1C(=O)CS/C1=N\c1nccs1` registered a z-score of -0.579.
Take `COc1cccc(-n2c(SC3CCOC3=O)nc3ccccc3c2=O)c1` (stereo unspecified): the z-score was -0.583.
On to `CCCCS(=O)Cc1ccccc1` (stereo unspecified), for which the z-score is -0.148.
The compound `O=c1nc2c(O)cccn2c2c1c(=O)[nH]c1ccccc12` registered a z-score of -0.904.
The figure for `COc1ccccc1-c1ccc(NC2CCCC2)nn1` is -0.624.
The value for `Cn1c(SCC(=O)NCc2cccs2)nnc1-c1cccs1` was 0.0897; that for `Nc1nc2ccc(-c3nc4ccccc4o3)cc2s1` was -0.112; that for `O=C(CSc1nc2ccccc2n1Cc1ccccc1)N/N=C/c1ccco1` was -0.329.
The value for `Cc1ccnc(NC(=O)CCC(=O)N(CC(=O)NC2CCCCC2)c2cccc(C)c2C)c1` was -0.622; that for `Cc1cc(=O)[nH]c(SCC(=O)Nc2nc(-c3ccccc3)c(-c3ccccc3)o2)n1` was -1.38.
In turn, `O=C1OC(c2ccccc2)/C(=C(/O)c2ccccc2)C1=O` (stereo unspecified) came in with a z-score of -2.65.
`Cn1c(-c2sc(=S)n(-c3ccccc3)c2N)nc2ccccc21` showed a z-score of 0.156.
The figure for `CCCCC(=O)N1CC2(C)CN(C(=O)CCCC)CC(C)(C1)C2=O` is 0.492; for `COc1ccc(-c2nc(C#N)c(N3CCCCCC3)o2)cc1OC` it is -0.645; for `Cc1sc(NC(=O)CSc2nnc(CCNC(=O)c3cccs3)n2C)nc1-c1ccccc1` it is -0.167.
The figure for `C=CCOc1c(CNc2cccc(C(=O)O)c2)cccc1OCC` is -0.167.

Values taken from PubChem BioAssay AID488969 (Vanderbilt High Throughput Screening Facility, 2010).
